Measurements: PubChem BioAssay AID1508624 (National Center for Advancing Translational Sciences (NCATS), 2021)
Hit rate of the full screen: of about 48,000 compounds, about 120 (0.25%) were called active. About 4% were inconclusive and are not listed. Calls come from the whole dose curve; as a rule, active = well fitted activation curve with a large enough effect; inconclusive = small, poorly fitted or top-dose-only effect, or another doubt; inactive = no such curve, though single readings can be large or run the other way. The list shows a part of the results, in another mix than the full data. Entries without a call were filed so in the source.

Experiment: Primary qHTS for Identification of Small Molecule Activators of Huntingtin-Antisense Promoter Activity; note: nearly all actives have a fitted effect of over 55% in size
Details: HEK293 HTT-AS promoter firefly luciferase reporter, 24 h; activity change, positive = activation: at 57.5 µM (top of the series), percent change from vehicle, -100% = no light
In short: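 Luminescence was read after Dual-Glo reagent and a 10 min room-temperature incubation. Values were normalized to vehicle (0% activity) and zero RLU (-100% activity). Reporter HEK293 cells had been exposed to compounds (up to 57.5 uM final) for 24 h.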
Potency is the fitted concentration of half-maximal effect.

SMILES | activity change, positive = activation | Potency
COc1ccc(CNC(=O)c2cc(-c3cccc(Cl)c3)on2)cc1 | 9.66% | –
COc1ccc(C2Nc3ccccc3-n3c(-c4ccccc4)c4c(=O)n(C)c(=O)n(C)c4c32)cc1 (stereo not drawn) | -13% | –
Cc1ccc(-n2nc3c(N4CCC(C(=O)NCCc5ccccc5)CC4)nnc(C)c3c2C)cc1 | inactive: -45.6% | –
Cc1coc2cc3oc(=O)c(CCC(=O)N4CCCCC4)c(C)c3cc12 | 37.2% | –
COC(=O)CN1C(=O)CSc2ccc(S(=O)(=O)Nc3ccccc3)cc21 | -1.78% | –
Cc1c2cnn(-c3ccccc3)c(=O)c2c(C)n1C(C)C(=O)NCc1cccc(Br)c1 (stereo not drawn) | inactive: -39.8% | –
O=C1CCSc2ccc(S(=O)(=O)Nc3cccc(C(F)(F)F)c3)cc2N1 | inactive: -34.4% | –
CC(NC(=O)CSc1nc(-c2ccccc2F)nc2cc(=O)[nH]n12)c1nc2ccccc2n1C (stereo not drawn) | -0.672% | –
Cc1ccc(C)c(NS(=O)(=O)c2ccc3oc(=O)c4ncn(C)c4c3c2)c1 | -1.34% | –
Cc1cc(C)cc(NC(=O)c2cccc(C(=O)Nc3cc(C)cc(C)c3)c2)c1 | -10.6% | –
Cc1cccc(Nc2nc3c(S(=O)(=O)c4ccc(Br)cc4)nnn3c3ccsc23)c1C | inactive: -17.5% | –
Cc1cc(C)cc(NC(=O)Cn2c(=O)n(CC(=O)NCCc3ccccc3)c(=O)c3ccccc32)c1 | inactive: -41.6% | –
CCOCCCNC(=O)Cn1nc(CC)n2c(cc3c(OC)cccc32)c1=O | 2.15% | –
Cc1cccc(OCCn2c(-c3ccc(Cl)cc3)nc3ccccc3c2=O)c1C | 5.67% | –
COc1ccc(-c2nc3ccccc3s2)cc1NC(C)=O | – | active: 1410 nM
CCc1ccc(NC(=O)CC2C(=O)N(c3ccc(Cl)cc3)C(=O)N2C2CCCC2)cc1 (stereo not drawn) | inactive: -20.6% | –
COc1ccc(CCN2C(=O)CN(C3CCCCCC3)C(=O)C2c2ccc(C)cc2)cc1OC (stereo not drawn) | -8.15% | –
CCCc1cc(=O)[nH]c(Nc2ccc(O)cc2C)n1 | -7.19% | –
Cc1cccc(C(CC(=O)NCC2(c3ccccc3)CCCC2)c2ccccc2)c1O (stereo not drawn) | -43.5% | –
COC(=O)c1ccc(NC(=O)CC2C(=O)N(c3cccc(OC)c3)C(=O)N2Cc2cccc(OC)c2)cc1 (stereo not drawn) | -5.07% | –
O=S(=O)(Nc1nc2n(n1)C(c1ccccc1)C=C(c1ccc(Cl)cc1)N2)c1ccccc1 (stereo not drawn) | inactive: -6.67% | –
CCOc1ccc(-c2nc3c(c(CC)nn3-c3ccccc3)c3cc(OC)c(OC)cc23)cc1 | 2.3% | –
CCCCOc1ccc(S(=O)(=O)Nc2cccc(-c3ccc(N4CCOCC4)nn3)c2)cc1 | 12.8% | –
CC(=O)Nc1cc(-c2ccccc2)nn1Cc1cccc(Cl)c1 | inactive: -19.6% | –
COc1cccc(-c2nc3c(c(C)nn3-c3ccccc3)c3cc(OC)c(OC)cc23)c1 | -3.49% | –

SMILES | activity change, positive = activation | Potency
CC1Cc2cc(S(=O)(=O)CCC(=O)Nc3ccc(Cl)cc3F)ccc2N1C(=O)C1CC1 (stereo not drawn) | -27.7% | –
COc1ccc(CCNC(=O)CCc2c(C)c3cc4c(C)coc4cc3oc2=O)cc1 | -17.3% | –
COc1cc2oc(=O)c(CC(=O)NCc3ccc(OC)c(OC)c3)c(C)c2cc1Cl | 6.39% | –
COc1ccc2c(c1)cc1c(=O)n(CC(=O)NCc3ccco3)nc(C)n12 | -9.17% | –
COc1ccc(NC(=O)c2c(C)oc3ccc(O)c(CN4CCCC4)c23)cc1Cl | -3.41% | –
COc1ccc(NC(c2ccc(F)cc2)c2nnc(-c3ccccc3Cl)o2)cc1Cl (stereo not drawn) | -14.4% | –
COc1ccc(S(=O)(=O)Nc2cccc(-c3ccc(N4CCCCCC4)nn3)c2)cc1F | 34.9% | –
CC(C)(C)c1ccc(C(=O)Nc2ccc(OCc3cc(=O)n4ccsc4n3)cc2)cc1 | inactive: -6.29% | –
COc1cc(CSc2ncc(CO)n2Cc2ccc(C)cc2)cc(OC)c1 | 7.54% | –
Cc1cccc(N2C(=O)C(CC(=O)Nc3ccc(F)cc3)N(C3CCCC3)C2=O)c1 (stereo not drawn) | -10.9% | –
Cc1oc2ccc(O)c(CN3CCN(C)CC3)c2c1C(=O)Nc1ccc(C(C)C)cc1 | 1.96% | –
CCCOc1ccc(C2C(=O)N(C3CCCCCC3)CC(=O)N2Cc2ccc(OC)cc2)cc1OC (stereo not drawn) | -32.9% | –
Cc1cc(C)c2oc(-c3cc(NC(=O)Cc4ccccc4)ccc3Cl)nc2c1 | -6.31% | –
CCc1ccccc1OCCSc1nc(-c2cccs2)nc2cc(=O)[nH]n12 | -12.5% | –
O=C(Nc1ccccc1C(F)(F)F)c1cc2ccccn2n1 | 78.4% | –
CCCS(=O)(=O)N1CCC(n2c(C(F)(F)F)nc3cccnc32)CC1 | -14.4% | –
CCc1ccc(-n2c(CCC(=O)O)ccc2-c2ccc(F)cc2)cc1 | 0.388% | –
Cc1ccc(-n2nnc(-c3nsc(NC(=O)c4ccc(C)c(C)c4)n3)c2C)cc1 | inactive: -17.9% | –
COc1cccc(NC(=O)c2c(C(=O)Nc3ccccc3)sc3nc(C)cc(=O)n23)c1 | -12.1% | –
Cc1nn(C(C)C(=O)NC2CCC(C)CC2)c(=O)c2cc3sccc3n12 (stereo not drawn) | inactive: -2.97% | –
Cc1nn(-c2ccc(N3CCCC3)nn2)c(C)c1CCC(=O)NCc1ccc(OC(C)C)cc1 | -13% | –
CC(=O)c1cc2c(cc1NC(=O)c1cnn(-c3ccc(C)cc3)c1-n1cccc1)OCO2 | -6.75% | –
O=C(Nc1cccc(C(F)(F)F)c1)c1noc2c1CCc1ccccc1-2 | 14.9% | –
CNC(=O)c1ccc(Nc2nnc(-c3ccc(C)c(S(=O)(=O)NC(C)(C)C)c3)c3ccccc23)cc1 | -12.3% | –
COc1ccccc1NC(=O)CCN1CCC(C(N)=O)CC1 | -8.83% | –

SMILES | activity change, positive = activation | Potency
O=C(Nc1cccc(-c2nc3ncccc3o2)c1)c1ccc(-c2cccc(Cl)c2Cl)o1 | -13.9% | –
CC(C)NC(=O)Cn1ncn2c(cc3cc(F)ccc32)c1=O | 41.2% | –
COc1ccc(CCNC(=O)Cc2c(C)c3cc(OC)c(OC)cc3oc2=O)cc1 | -4.27% | –
Cc1cc(C)c(C#N)c(SCC(=O)Nc2ccccc2C#N)n1 | inactive: 2.24% | –
COc1cc(C(=O)Nc2ccc(OCc3cc(=O)n4ccc(C)cc4n3)cc2)cc(OC)c1OC | inactive: -0.483% | –
CCn1c(=O)cc(OCC(=O)NCc2ccc(F)cc2Cl)c2ccccc21 | inactive: 6.98% [at 11.5 µM, percent change from vehicle, -100% = no light] | –
Cc1cccc(CS(=O)(=O)CC2Nc3ccc(C(=O)NCc4ccccc4Cl)cc3NC2=O)c1 (stereo not drawn) | -27.6% | –
CCNC(=O)c1cnc2sc(N3CCC(C)CC3)nn2c1=O | 4.83% | –
COc1ccc(OC)c(CCNC(=O)c2ccc3[nH]c(C)c(C)c3c2)c1 | inactive: -22.9% | –
COc1ccccc1CCNC(=O)CCc1c(C)c2cc3c(C)coc3cc2oc1=O | -0.857% | –
CC1Cc2cc(S(=O)(=O)CCC(=O)Nc3ccc(F)cc3Cl)ccc2N1C(=O)C1CC1 (stereo not drawn) | -13.8% | –
CCCCC(=O)OCC(=O)[C@H]1[C@H](C)C[C@H]2[C@@H]3C[C@H](F)C4=CC(=O)C=C[C@]4(C)[C@@]3(F)[C@@H](O)C[C@@]21C | inactive: -10% | –
COc1ccc(C)cc1NC(=O)C1CCN(S(=O)(=O)Cc2ccccc2)CC1 | 3.25% | –
Cc1ccc(NS(=O)(=O)c2cn(C)c(C)n2)c(Br)c1 | inactive: -10.9% | –
O=C(CSc1nc2c([nH]c3ccccc32)c(=O)n1-c1cccc(Cl)c1)N1CCOCC1 | inactive: -50.3% | –
Cc1oc2ccc(O)c(CN3CCN(C)CC3)c2c1C(=O)Nc1cccc(C(F)(F)F)c1 | -35.1% | –
CCCN1CCN(CCCNC(=O)Cn2c(-c3cccs3)cc3ccccc32)CC1 | inactive: -13.9% | –
COc1ccc(-c2noc(CN3CCN(c4cccc(Cl)c4)CC3)n2)cc1 | inactive: -19.7% | –
Cc1c(NC(=O)c2cc(-c3ccc(O)cc3)on2)c(=O)n(-c2ccccc2)n1C | -14.2% | –
COc1ccc(-c2cc(C(=O)Nc3ccc4c(c3)OCO4)no2)cc1OC | 15.9% | –
COc1ccc(N2CCN(C(=O)CCc3c(C)nc4cc(-c5ccc(Cl)cc5)nn4c3C)CC2)cc1 | inactive: -78.1% | –
O=C(NCc1ccccc1Cl)c1cnc2sc(N3CCCCC3)nn2c1=O | -5.32% | –
Cc1nc2scc(C)n2c(=O)c1S(=O)(=O)Nc1ccc(N2CCOCC2)cc1 | -21.6% | –
COc1ccc(C(CC(=O)NCc2ccccc2)N2Cc3ccccc3C2=O)cc1 (stereo not drawn) | -4.99% | –
CCc1ccccc1NC(=O)c1cnc2sc(N3CCOCC3)nn2c1=O | -4.41% | –

SMILES | activity change, positive = activation | Potency
CCOc1ccccc1CNC(=O)c1cnc2sc(N3CCC(C)CC3)nn2c1=O | 2.83% | –
Cn1cnc2c(F)c(Nc3ccc(Br)cc3Cl)c(C(=O)NOCCO)cc21 | inactive: -3.64% | –
COc1cc(-c2nnc(SCC(=O)NCc3ccccc3Cl)o2)cc(OC)c1OC | -4.23% | –
COc1ccc(CNc2ncnc3onc(C)c23)cc1 | inactive: -38.8% | –
COc1ccc2c(C)c(CC(=O)NCc3ccc(C)cc3)c(=O)oc2c1OC | 6.72% | –
CCOC(=O)c1ccc(N2CCN(c3cc(C)ccc3C)CC2)c(NC(=O)Nc2ccccc2)c1 | -10.8% | –
Clc1ccc(N2CCN(c3ncnc4c3nc3n4CCCC3)CC2)cc1 | inactive: -89.9% | –
O=C(NCCSCc1cccc(Cl)c1)C1CCN(S(=O)(=O)Cc2ccccc2)CC1 | -8.54% | –
COc1ccc(C(CC(=O)Nc2cccc(C)c2C)N2Cc3ccccc3C2=O)cc1 (stereo not drawn) | -26.7% | –
Cc1ccc(-c2nc3ncccc3o2)cc1NC(=O)c1cccc(OCC(C)C)c1 | -12.8% | –
Cc1ccc(S(=O)(=O)Nc2nc3n(n2)C(c2ccccc2Cl)C=C(c2ccccc2)N3)cc1 (stereo not drawn) | inactive: -13.9% | –
COc1ccccc1N1CCN(c2nc3ccc(C)cc3n3nnnc23)CC1 | 5.29% | –
O=C(c1ccco1)N1CCN(c2nc3c(Cl)cccc3s2)CC1 | inactive: 26.3% | –
COc1ccc(Cn2c(SCC(N)=O)nc3c(sc4ccccc43)c2=O)cc1 | inactive: 7.82% | –
COc1ccc(NC(=O)CC2C(=O)N(c3ccc(C)cc3)C(=O)N2Cc2cccnc2)cc1 (stereo not drawn) | 0.937% | –
CCCCN1C(=O)CN(C2CCCCC2)C(=O)C1c1ccc(OC(C)C)c(OC)c1 (stereo not drawn) | -7.92% | –
COc1ccccc1Nc1nn2c(=O)c3ccc(C(=O)NCc4ccc(F)cc4)cc3nc2s1 | inactive: -52.8% | –
COc1ccc(NC(=O)c2c(C)oc3ccc(O)c(CN4CCC(C)CC4)c23)cc1 | -22.4% | –
Cc1ccc(-c2nnc(Nc3ccc(Cl)c(Cl)c3)c3ccccc23)cc1S(=O)(=O)NCCO | -50.3% | –
Cc1ccc(CNC(=O)c2cnn(-c3cccc(C)c3)c2C2CCN(C(=O)OC(C)(C)C)CC2)cc1 | inactive: -42.5% | –
Cc1ccc(S(=O)(=O)Nc2cc3c(cc2NCc2ccccc2)n(C)c(=O)n3C)cc1 | 24.3% | –
Cc1oc2ccc(O)c(CN3CCCC3)c2c1C(=O)Nc1ccc(C(C)C)cc1 | -16.7% | –
COc1ccc(-c2nc3cc(NC(=O)c4ccc(C)cc4)ccc3o2)cc1Cl | -36.8% | –
